Our source for the binding values is article PMC4698670.

These are yes or no findings as the source states them, for the method shown. Binding seen in cells or lysates may run through a third protein. Some binding calls cover weakened binding; strength is not graded here. For part of these data: Sequences can lack the tags named with a protein.

In experiment [1] the target is T1, native PRX1 of mouse liver (mouse (endogenous in C57BL/6J liver)) (UniProt P35700).
T1 sequence: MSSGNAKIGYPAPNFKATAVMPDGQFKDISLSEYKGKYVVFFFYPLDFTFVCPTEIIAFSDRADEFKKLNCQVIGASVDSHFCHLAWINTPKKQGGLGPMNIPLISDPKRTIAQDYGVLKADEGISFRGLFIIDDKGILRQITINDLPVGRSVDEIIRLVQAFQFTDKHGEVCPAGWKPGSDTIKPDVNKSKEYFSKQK
Description: co-IP; native immunoprecipitation: cleared C57BL/6J mouse liver lysate with mouse anti-PRX1 (13E7) or normal mouse IgG and sheep anti-mouse Dynabeads, overnight at 4 °C; 20 mM HEPES pH 7.4, 35 mM NaCl, 0.001% NP-40; blot with anti-fortilin and anti-PRX1.

In experiment [2] the target is T2, peroxiredoxin-1 (PRX1), endogenous in U2OS cells (human (endogenous in U2OS)) (UniProt Q06830).
T2 sequence: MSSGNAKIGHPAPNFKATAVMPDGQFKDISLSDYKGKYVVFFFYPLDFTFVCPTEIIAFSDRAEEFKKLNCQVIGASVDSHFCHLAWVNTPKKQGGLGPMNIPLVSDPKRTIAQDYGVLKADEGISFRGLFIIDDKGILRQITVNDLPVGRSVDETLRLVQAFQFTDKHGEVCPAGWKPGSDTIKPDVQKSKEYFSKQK
Kind of experiment: proximity ligation; wild-type U2OS cells, fixed and permeabilized; mouse anti-fortilin (2C4) with goat anti-PRX1 or anti-PRX4; Duolink PLA probes, signal if within 30 nm.

The target of experiment [3] is T3, PRX4, endogenous in wild-type U2OS cells (human (endogenous in U2OS)) (UniProt Q13162).
T3 sequence: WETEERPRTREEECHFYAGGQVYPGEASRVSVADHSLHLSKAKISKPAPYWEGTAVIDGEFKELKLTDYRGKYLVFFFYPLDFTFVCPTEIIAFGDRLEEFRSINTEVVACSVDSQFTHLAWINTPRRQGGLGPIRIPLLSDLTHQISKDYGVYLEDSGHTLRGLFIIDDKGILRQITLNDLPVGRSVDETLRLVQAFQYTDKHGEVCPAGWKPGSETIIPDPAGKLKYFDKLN
The description is as above.

Another experiment deals with T4, PRX1-FLAG (human) (UniProt Q06830).
T4 sequence: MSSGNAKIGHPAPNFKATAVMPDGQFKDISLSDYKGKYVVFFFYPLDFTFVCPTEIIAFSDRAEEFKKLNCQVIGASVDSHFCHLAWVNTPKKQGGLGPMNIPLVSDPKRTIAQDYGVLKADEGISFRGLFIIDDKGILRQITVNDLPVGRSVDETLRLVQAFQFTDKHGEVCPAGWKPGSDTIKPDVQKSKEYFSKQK
Kind of experiment: co-IP; cell-based bi-directional immunoprecipitation: cleared lysates of U2OS lines co-expressing fortilin-HA and a PRX-FLAG on anti-FLAG (M2) agarose, anti-HA agarose or bare beads, 37 °C for 4 hours; blot with anti-HA and anti-FLAG.

The target in another experiment is T5, NQO2-HA (UniProt P16083).
T5 sequence: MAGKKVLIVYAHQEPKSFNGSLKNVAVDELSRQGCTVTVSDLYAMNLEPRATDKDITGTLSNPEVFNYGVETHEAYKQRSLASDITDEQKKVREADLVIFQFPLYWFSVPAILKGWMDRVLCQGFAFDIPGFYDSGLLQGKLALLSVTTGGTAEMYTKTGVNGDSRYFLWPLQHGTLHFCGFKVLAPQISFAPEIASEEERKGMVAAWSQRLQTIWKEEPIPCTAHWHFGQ
Kind of experiment: co-IP; cell-based forward immunoprecipitation: cleared lysates of U2OS lines expressing HA-tagged bait on agarose-conjugated anti-HA (3F10); blot with anti-HA and anti-PRX1.

Experiment [4] addresses T6, fortilin tagged with the haemagglutinin (HA)-epitope at its C-terminal end (not stated (human or mouse cDNA cloned)) (UniProt P13693).
T6 sequence: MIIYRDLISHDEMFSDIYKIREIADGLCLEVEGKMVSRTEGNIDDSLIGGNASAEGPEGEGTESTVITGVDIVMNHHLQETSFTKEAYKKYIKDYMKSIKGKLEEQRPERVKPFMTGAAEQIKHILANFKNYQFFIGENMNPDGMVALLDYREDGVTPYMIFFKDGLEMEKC
The description is as above.

Experiment [5] deals with T7, fortilin_(ΔL7R), HA-tagged (not stated (human or mouse cDNA cloned)) (UniProt P13693).
T7 sequence: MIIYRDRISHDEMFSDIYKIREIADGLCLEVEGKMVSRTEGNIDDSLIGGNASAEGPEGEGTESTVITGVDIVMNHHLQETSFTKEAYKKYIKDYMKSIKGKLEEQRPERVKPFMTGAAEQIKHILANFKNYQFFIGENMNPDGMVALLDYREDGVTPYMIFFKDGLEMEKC
Kind of experiment: co-IP; U2OS cells transfected with plasmids for HA-tagged fortilin or its point mutants; lysates subjected to co-immunoprecipitation and Western blot for PRX1.

Experiment [6] deals with T8, fortilin_(ΔR21A), HA-tagged (not stated (human or mouse cDNA cloned)) (UniProt P13693).
T8 sequence: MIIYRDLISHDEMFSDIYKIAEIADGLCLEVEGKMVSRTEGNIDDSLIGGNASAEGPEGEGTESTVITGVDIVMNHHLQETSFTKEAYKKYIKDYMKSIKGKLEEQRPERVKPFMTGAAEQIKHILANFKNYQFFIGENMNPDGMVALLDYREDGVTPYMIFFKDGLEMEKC
The experiment is described as above.

In experiment [7] the target is T9, fortilin_(ΔI3R), HA-tagged (not stated (human or mouse cDNA cloned)) (UniProt P13693).
T9 sequence: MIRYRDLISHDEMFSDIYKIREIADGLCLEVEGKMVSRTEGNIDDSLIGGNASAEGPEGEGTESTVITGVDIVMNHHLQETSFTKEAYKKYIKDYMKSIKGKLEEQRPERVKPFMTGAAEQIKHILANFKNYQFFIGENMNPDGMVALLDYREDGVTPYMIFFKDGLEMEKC
The experiment is described as above.

Experiment [8] deals with T10, HA-tagged fortilin (transfected, wild type of the point-mutant panel) (not stated (human or mouse cDNA cloned)) (UniProt P13693).
T10 sequence: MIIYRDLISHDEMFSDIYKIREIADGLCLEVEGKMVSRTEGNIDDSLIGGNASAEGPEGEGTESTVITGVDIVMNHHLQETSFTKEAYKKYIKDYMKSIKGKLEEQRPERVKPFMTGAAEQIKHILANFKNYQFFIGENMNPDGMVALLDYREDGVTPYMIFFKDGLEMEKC
The experiment is described as above.

Experiment [9] has as its target T6, fortilin tagged with the haemagglutinin (HA)-epitope at its C-terminal end (not stated (human or mouse cDNA cloned)). Kind of experiment: co-IP; cell-based bi-directional immunoprecipitation: cleared lysates of U2OS lines co-expressing fortilin-HA and a PRX-FLAG on anti-FLAG (M2) agarose, anti-HA agarose or bare beads, 37 °C for 4 hours; blot with anti-HA and anti-FLAG.

B1: native fortilin of mouse liver (protein, UniProt P63028 1-172)
chain: MIIYRDLISHDELFSDIYKIREIADGLCLEVEGKMVSRTEGAIDDSLIGGNASAEGPEGEGTESTVVTGVDIVMNHHLQETSFTKEAYKKYIKDYMKSLKGKLEEQKPERVKPFMTGAAEQIKHILANFNNYQFFIGENMNPDGMVALLDYREDGVTPFMIFFKDGLEMEKC
Regarding B1, the binding entry in experiment [1] is reported as “binds”.

B2: fortilin, endogenous in wild-type U2OS cells (protein, UniProt P13693 1-172)
chain: MIIYRDLISHDEMFSDIYKIREIADGLCLEVEGKMVSRTEGNIDDSLIGGNASAEGPEGEGTESTVITGVDIVMNHHLQETSFTKEAYKKYIKDYMKSIKGKLEEQRPERVKPFMTGAAEQIKHILANFKNYQFFIGENMNPDGMVALLDYREDGVTPYMIFFKDGLEMEKC
For the molecule B2, the values for the binding entry in [2] and in experiment [3] were “binds” and “no binding”, respectively.

B3: fortilin tagged with the haemagglutinin (HA)-epitope at its C-terminal end (protein, UniProt P13693 1-172)
chain: MIIYRDLISHDEMFSDIYKIREIADGLCLEVEGKMVSRTEGNIDDSLIGGNASAEGPEGEGTESTVITGVDIVMNHHLQETSFTKEAYKKYIKDYMKSIKGKLEEQRPERVKPFMTGAAEQIKHILANFKNYQFFIGENMNPDGMVALLDYREDGVTPYMIFFKDGLEMEKC
Turning to B3, the binding result with PRX1-FLAG (human) is listed as “binds”.

B4: peroxiredoxin-1 (PRX1), endogenous in U2OS cells (protein, UniProt Q06830 1-199)
chain: MSSGNAKIGHPAPNFKATAVMPDGQFKDISLSDYKGKYVVFFFYPLDFTFVCPTEIIAFSDRAEEFKKLNCQVIGASVDSHFCHLAWVNTPKKQGGLGPMNIPLVSDPKRTIAQDYGVLKADEGISFRGLFIIDDKGILRQITVNDLPVGRSVDETLRLVQAFQFTDKHGEVCPAGWKPGSDTIKPDVQKSKEYFSKQK
Regarding B4, the binding result with NQO2-HA is listed as “no binding”; in [4], “binds”; in experiment [5] it was “no binding”; in [6], “binds”; in [7], “binds”; in experiment [8], “binds”.

B5: PRX1-FLAG (protein, UniProt Q06830 1-199)
chain: MSSGNAKIGHPAPNFKATAVMPDGQFKDISLSDYKGKYVVFFFYPLDFTFVCPTEIIAFSDRAEEFKKLNCQVIGASVDSHFCHLAWVNTPKKQGGLGPMNIPLVSDPKRTIAQDYGVLKADEGISFRGLFIIDDKGILRQITVNDLPVGRSVDETLRLVQAFQFTDKHGEVCPAGWKPGSDTIKPDVQKSKEYFSKQK
As for B5, the binding result in [9] is on record as “binds”.

B6: PRX2-FLAG (protein, UniProt P32119 1-198)
chain: MASGNARIGKPAPDFKATAVVDGAFKEVKLSDYKGKYVVLFFYPLDFTFVCPTEIIAFSNRAEDFRKLGCEVLGVSVDSQFTHLAWINTPRKEGGLGPLNIPLLADVTRRLSEDYGVLKTDEGIAYRGLFIIDGKGVLRQITVNDLPVGRSVDEALRLVQAFQYTDEHGEVCPAGWKPGSDTIKPNVDDSKEYFSKHN
With B6, the binding result in experiment [9] is listed as “binds”.

B7: PRX4-FLAG (protein, UniProt Q13162 38-271)
chain: WETEERPRTREEECHFYAGGQVYPGEASRVSVADHSLHLSKAKISKPAPYWEGTAVIDGEFKELKLTDYRGKYLVFFFYPLDFTFVCPTEIIAFGDRLEEFRSINTEVVACSVDSQFTHLAWINTPRRQGGLGPIRIPLLSDLTHQISKDYGVYLEDSGHTLRGLFIIDDKGILRQITLNDLPVGRSVDETLRLVQAFQYTDKHGEVCPAGWKPGSETIIPDPAGKLKYFDKLN
On to B7, for which the binding result in [9] is on record as “no binding”.

B8: PRX5-FLAG (protein, UniProt P30044 53-214)
chain: MAPIKVGDAIPAVEVFEGEPGNKVNLAELFKGKKGVLFGVPGAFTPGCSKTHLPGFVEQAEALKAKGVQVVACLSVNDAFVTGEWGRAHKAEGKVRLLADPTGAFGKETDLLLDDSLVSIFGNRRLKRFSMVVQDGIVKALNVEPDGTGLTCSLAPNIISQL
With B8, the binding result in experiment [9] is reported as “binds”.

B9: PRX3-FLAG (protein, UniProt P30048 62-256)
chain: APAVTQHAPYFKGTAVVNGEFKDLSLDDFKGKYLVLFFYPLDFTFVCPTEIVAFSDKANEFHDVNCEVVAVSVDSHFSHLAWINTPRKNGGLGHMNIALLSDLTKQISRDYGVLLEGSGLALRGLFIIDPNGVIKHLSVNDLPVGRSVEETLRLVKAFQYVETHGEVCPANWTPDSPTIKPSPAASKEYFQKVNQ
For the molecule B9, the binding result in experiment [9] is given as “binds”.
